The values below come from the RNAGym collection of RNA variant scans (doi:10.1101/gad.245936.114).

The chains are these.
B1: tRNA (parent)
chain: CUCUCGGUAGCCAAGUUGGUUUAAGGCGCAAGACUUUAAUUUAUCACUACGAAAUCUUGAGAUCGGGCGUUCGACUCGCCCCCGGGAGAUUUUUUCCUCGAGCAA

This sample is rich in variants without activity.

In this data set the parent is B1. The experiment in a line: nonsense suppression (GFP-seq) (ratio to wild type); higher = more function; SUP4oc tRNA, yeast GFP reporter sort-seq. The essentials: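 Raffinose/galactose medium with 80 mg/L adenine was used to grow yeast carrying genome-integrated tRNA variants (~3% random-mutation library), RFP, and a galactose-driven GFP ochre reporter. Cells went into GFP/RFP bins, which were Illumina-sequenced, and variants with ≥100 reads and ≥30 cells were scored. Nonsense suppression (GFPSEQ) is the per-bin median GFP/RFP weighted by estimated cell share and expressed relative to the unmutated parent tRNA.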
As for C29U U57C, the nonsense suppression is ≤ 0.026. Under U55A G65C stands ≤ 0.026. Under U70C G86A stands ≤ 0.026; under C11U A13U G25C C29U, ≤ 0.026.

G26A C79A A89C: the nonsense suppression was ≤ 0.026. Under G28U U55G stands ≤ 0.026; under G25C G28A U63A, ≤ 0.026; under A14U, ≤ 0.026. Under C3G G65C C79U stands ≤ 0.026; under U55C U57G, ≤ 0.026; under U16A C64A, ≤ 0.026.

Consider G25A U35C, for which the nonsense suppression is ≤ 0.026.

In the case of U16G C27U G73A G88C, the nonsense suppression was ≤ 0.026. Under C29U G32C U55C C64G stands ≤ 0.026; under C11A G66A, ≤ 0.026. Turning to C34G A54U, the nonsense suppression was ≤ 0.026.

In the case of C1A U16G G28U, the nonsense suppression was ≤ 0.026. Under G32A A62U C83A stands ≤ 0.026; under C11U U21C G65C, ≤ 0.026. For A9G C79A A87C, the nonsense suppression is ≤ 0.026. Regarding A31G G61A G67U, the nonsense suppression was ≤ 0.026. With G26C A31U C68G, the nonsense suppression is ≤ 0.026. Under A24C G73C stands ≤ 0.026. Under C12U G25A A74G stands ≤ 0.026; under U4G C11G A89U, ≤ 0.026. C68G C80A: the nonsense suppression is ≤ 0.026. Under U20C U35A stands ≤ 0.026. Take U8G G69A G78C: the nonsense suppression was ≤ 0.026.

For the variant U22G A33C C80G, the nonsense suppression is ≤ 0.026. Under C1A C12U U63G G73C stands ≤ 0.026. Under C29G U55C G88A stands ≤ 0.026; under G15C C56U A87C, ≤ 0.026; under A54C U57C G59A G73U, ≤ 0.026.

As for U4C G28C C34U, the nonsense suppression is ≤ 0.026. Under C1U C82U G86C stands ≤ 0.026; under U17C G28U G65C, ≤ 0.026. Under C3U G18C stands ≤ 0.026; under A9C G19U A23C, ≤ 0.026; under G10C A33G C81A, ≤ 0.026.

Regarding G10A G59A, the nonsense suppression was ≤ 0.026. Regarding A54C C79A, the nonsense suppression was ≤ 0.026. Under C1A G28C G66U C80U stands ≤ 0.026; under C34A C82G, ≤ 0.026. Under U8C G32C G65C C77A stands ≤ 0.026.

For A30G A62C G88A, the nonsense suppression is ≤ 0.026.

Take G6U C12A U16C: the nonsense suppression is ≤ 0.026.

With C3U U58A, the nonsense suppression was ≤ 0.026. Under G7A C34A C72G C75G C83U stands ≤ 0.026; under C83U G84A, ≤ 0.026. Under A33C U63C U70A stands ≤ 0.026; under A9U U22G U55C A62C, ≤ 0.026.

A13U A33C: the nonsense suppression is ≤ 0.026. Regarding U2G A9C G10C G66C, the nonsense suppression is ≤ 0.026. Under C29A U57C G61C U71A G78U stands ≤ 0.026. Under G32U U57A C81G A87U stands ≤ 0.026. Under G25U G86C stands ≤ 0.026; under C5A A9U, ≤ 0.026. In the case of U57C G61A U70C, the nonsense suppression is ≤ 0.026. Regarding A60C C64G C79A, the nonsense suppression is ≤ 0.026. Under C12U U22G U57C G67U stands ≤ 0.026; under A9U G32A G65U G84A, ≤ 0.026; under G6C A24C U57A C81U, ≤ 0.026. Consider C1U U35A U55A, for which the nonsense suppression was ≤ 0.026.

In the case of A23G U35G G59C A87C, the nonsense suppression is ≤ 0.026. Under G18U U20C U76G stands 0.264.

Consider C34U A62C C81U, for which the nonsense suppression is ≤ 0.026. Under C34G G69C stands ≤ 0.026; under A13U U21A U35C G84U, ≤ 0.026; under A31C C68A G69C, ≤ 0.026.

For C12U U58A G61C U70G C81U, the nonsense suppression was ≤ 0.026. Under A9G A13U A74C stands ≤ 0.026.

Consider U17A G65A G86U, for which the nonsense suppression was ≤ 0.026. Under U8C A54G G59C A62G G84A stands ≤ 0.026; under U16G C80A, ≤ 0.026; under G6U A30U A89C, ≤ 0.026. For the variant U57C U70C, the nonsense suppression is ≤ 0.026.

On to A23C A31U U55A U58G A62U C77G, for which the nonsense suppression was ≤ 0.026.

For the variant C5A C27G A89U, the nonsense suppression was ≤ 0.026. Under A13C G32U A62G G69C C72A stands ≤ 0.026. Under G15C G69C G85U stands ≤ 0.026; under C1A A87G, ≤ 0.026. Under U4G U35G U55C stands ≤ 0.026; under U16G C56A, ≤ 0.026; under A23C G28C C34G, ≤ 0.026. For C11A C75G, the nonsense suppression was ≤ 0.026. Under A9U C34U stands ≤ 0.026; under G6U G7U U22A U35G C81A, ≤ 0.026. Under C3U U4C C5G G7U U8A A9G G10C C12A U17A U57A stands ≤ 0.026; under C3A U8A G10A U63C, ≤ 0.026.

With C3U U17A U58G A60G G61U, the nonsense suppression was ≤ 0.026.

As to G10C C29U A31U U71G A87G, the nonsense suppression is ≤ 0.026. Under U4C A87G stands 1.1; under U16G U35G C80A, ≤ 0.026.

Turning to U58C G61C, the nonsense suppression came out at 0.0324. Under G15U U70G G73C stands ≤ 0.026; under A9U A62G, ≤ 0.026. Under U8G U16A G25A stands ≤ 0.026.

For C27A C29A C72A, the nonsense suppression was ≤ 0.026. Under U16A U55G U57G A60U stands ≤ 0.026; under A13U U55C A87C, ≤ 0.026. Under A62U G78A stands 0.0537; under C29G C83U, ≤ 0.026; under U16A C80G, ≤ 0.026. Under C27G U55C A62G stands ≤ 0.026.

A9G U58C G61A G66A C81U: the nonsense suppression is ≤ 0.026. Under U8A A30G stands 0.0404; under C12G C56G G65A A74U, ≤ 0.026. Under G69A C83G stands ≤ 0.026; under A74C C77G C79U, ≤ 0.026; under A14G U57C U58A, ≤ 0.026. For the variant C5U G66U C82G, the nonsense suppression is ≤ 0.026. Under C1A G19U A23G stands ≤ 0.026; under A60G C83A G86A G88C, ≤ 0.026; under G65C G78A C79G, ≤ 0.026. Under G61A C68G stands 0.0366; under C3A C5U C12G G59C, ≤ 0.026; under A23G C56A C64G A74C, ≤ 0.026.

As for A13C G26U A89U, the nonsense suppression is ≤ 0.026.

Regarding U8C G19A C27G C34U G69A, the nonsense suppression is ≤ 0.026.

Consider G7A C11U, for which the nonsense suppression was ≤ 0.026. Under C5U U71G stands ≤ 0.026; under G6U G25U, ≤ 0.026. G6C G67U: the nonsense suppression is ≤ 0.026. Under C3U A24C G61C A89G stands ≤ 0.026; under A31U U71A, ≤ 0.026; under A23U G59A A74G, ≤ 0.026. Regarding C5A U16C G28C G86A G88C, the nonsense suppression is ≤ 0.026. For G67A C83A, the nonsense suppression was ≤ 0.026. For C1A G15C C68U C81A, the nonsense suppression was ≤ 0.026. Regarding U35G A54C G65C, the nonsense suppression was ≤ 0.026. Under A62U U70A stands ≤ 0.026; under U17G G28C, 0.209; under C11U A13C G25U C34G C75G A87U, ≤ 0.026. Under A33G U58G stands ≤ 0.026.

For C12G G32U G73C A74U C80A, the nonsense suppression is ≤ 0.026. Under G7C G25U A31G G86C stands ≤ 0.026. As to G10U G25C A31G U57A A87G, the nonsense suppression is ≤ 0.026. Under A60G A62G U63C G66A stands ≤ 0.026. Under A13G A30G A62C U70C stands ≤ 0.026; under G7C U8A A14U A33C, ≤ 0.026; under C5G A60U, ≤ 0.026. Under U2C G19U stands ≤ 0.026. Take A60G U70C G73C C81U: the nonsense suppression is ≤ 0.026. Turning to G32U U70G, the nonsense suppression was ≤ 0.026. Under U8A A14G stands 0.18; under G25A A60C, ≤ 0.026. Under G61U U76C G85U stands ≤ 0.026; under G59C C82G, ≤ 0.026.

As for U4A G7C G15C G32U, the nonsense suppression was ≤ 0.026. Under C56U A60C G78U stands ≤ 0.026. Under C27U U57C C77U stands ≤ 0.026; under G7C A23U G69C, ≤ 0.026. Under C12U U22C C27A G28C stands ≤ 0.026. Regarding A9U C72G, the nonsense suppression came out at 0.0446. Under G15C U57A G86A stands ≤ 0.026; under A24C A89C, 0.0925; under A9U C81U, 0.0272. Under G59C U63A C79A A87G stands ≤ 0.026; under C1G C11A A24G, ≤ 0.026; under A14U U57G, ≤ 0.026. Under G32U A54U C64U U76C stands ≤ 0.026; under C5A U16A A24G A33G C80A, ≤ 0.026; under G25C U35C G88A, ≤ 0.026. Turning to C1A C34U G88U, the nonsense suppression is ≤ 0.026.

For the variant A9G A33C A74U C82U, the nonsense suppression was ≤ 0.026. Under C5U U63A stands 0.0305; under A24G C77G, ≤ 0.026.
